Assay results as given in the supplement of paper PMC4604168 (melanoma cell lines).
This is one part of the list. Repeats are few or missing, and single values can be far off.

Experiments:
Assay in all cases: cell count relative to DMSO control; melanoma cells; higher = more viable cells
Conditions in all cases: library dose: low library concentration; 72 h
[1] = tested on: WM115
[2] = tested on: WM1716
[3] = tested on: WM1745
[4] = tested on: WM3526
[5] = tested on: WM3619
[6] = tested on: WM451Lu
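Also: cell number obtained by counting DAPI-stained nuclei in high-throughput microscope images with image analysis software, screen run in 1,536-well plates.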

CCCS(=O)(=O)Nc1ccc(F)c(C(=O)c2c[nH]c3ncc(Cl)cc23)c1F + C=CCn1c(=O)c2cnc(Nc3ccc(N4CCN(C)CC4)cc3)nc2n1-c1cccc(C(C)(C)O)n1 [MK1775] (first compound 0.08 µM, partner dose 0.02 µM)
cell count [1]: 77.3%
cell count [2]: 86.3%
cell count [3]: 80.8%
cell count [4]: 60%
cell count [5]: 97.2%
cell count [6]: 84.6%

NC1(c2ccc(-c3nc4ccn5c(=O)[nH]nc5c4cc3-c3ccccc3)cc2)CCC1 + NC(=O)Nc1cc(-c2cccc(F)c2)sc1C(=O)N[C@H]1CCCNC1 [AZD7762] (first compound 0.4 µM, partner dose 0.02 µM)
cell count [1]: 67.6%
cell count [2]: 92.2%
cell count [3]: 85.7%
cell count [4]: 81.5%
cell count [5]: 87.7%
cell count [6]: 71.5%

NC1(c2ccc(-c3nc4ccn5c(=O)[nH]nc5c4cc3-c3ccccc3)cc2)CCC1 + CC(=O)c1c(C)c2cnc(Nc3ccc(N4CCNCC4)cn3)nc2n(C2CCCC2)c1=O [palbociclib] (first compound 0.4 µM, partner dose 0.04 µM)
cell count [1]: 63.3%
cell count [2]: 57.9%
cell count [3]: 75.2%
cell count [4]: 56%
cell count [5]: 67.7%
cell count [6]: 77.4%

NC1(c2ccc(-c3nc4ccn5c(=O)[nH]nc5c4cc3-c3ccccc3)cc2)CCC1 + Cc1ccc(NC(=O)c2cccc(N(C)C)c2)cc1NC(=O)c1ccc(O)cc1 [ZM336372] (first compound 0.4 µM, partner dose 2 µM)
cell count [1]: 77%
cell count [2]: 94%
cell count [3]: 94.5%
cell count [4]: 84.6%
cell count [5]: 102%
cell count [6]: 97%

CN(c1ncccc1CNc1nc(Nc2ccc3c(c2)CC(=O)N3)ncc1C(F)(F)F)S(C)(=O)=O + OCc1c[nH]c2ccccc12 [Indole-3-carbinol] (first compound 0.08 µM, partner dose 0.8 µM)
cell count [1]: 74.6%
cell count [2]: 78.4%
cell count [3]: 82%
cell count [4]: 77.5%
cell count [5]: 75.4%
cell count [6]: 56.2%

CN(c1ncccc1CNc1nc(Nc2ccc3c(c2)CC(=O)N3)ncc1C(F)(F)F)S(C)(=O)=O + CN(NC(=O)CC(=O)NN(C)C(=S)c1ccccc1)C(=S)c1ccccc1 [STA4783] (first compound 0.08 µM, partner dose 0.006 µM)
cell count [1]: 79.9%
cell count [2]: 67.8%
cell count [3]: 55.3%
cell count [4]: 102%
cell count [5]: 90.9%
cell count [6]: 62.5%

C=C(c1ccc(C(=O)O)cc1)c1cc2c(cc1C)C(C)(C)CCC2(C)C [Bexarotene] + COc1cc(N2CCC(N3CCN(C)CC3)CC2)ccc1Nc1ncc(Cl)c(Nc2ccccc2S(=O)(=O)C(C)C)n1 [NVP-TAE684] (first compound 2 µM, partner dose 0.08 µM)
cell count [1]: 95.6%
cell count [2]: 100%
cell count [3]: 101%
cell count [4]: 84.5%
cell count [5]: 77.7%
cell count [6]: 93.8%

CCCS(=O)(=O)Nc1ccc(F)c(C(=O)c2c[nH]c3ncc(Cl)cc23)c1F + O=C(Nc1cccc(Cl)c1)Nc1ncc(CCNc2ncnc3ccsc23)s1 [SNS314] (first compound 0.08 µM, partner dose 0.0008 µM)
cell count [1]: 98%
cell count [2]: 111%
cell count [3]: 89.6%
cell count [4]: 68.3%
cell count [5]: 91.7%
cell count [6]: 117%

CCCS(=O)(=O)Nc1ccc(F)c(C(=O)c2c[nH]c3ncc(Cl)cc23)c1F + Nc1nc(F)nc2c1ncn2[C@@H]1O[C@H](CO)[C@@H](O)[C@@H]1O [fludarabine] (first compound 0.08 µM, partner dose 0.2 µM)
cell count [1]: 95.8%
cell count [2]: 125%
cell count [3]: 103%
cell count [4]: 26.9%
cell count [5]: 89.1%
cell count [6]: 45.4%

CCCS(=O)(=O)Nc1ccc(F)c(C(=O)c2c[nH]c3ncc(Cl)cc23)c1F + O=S(=O)(c1ccccc1)N(CC(F)(F)F)c1ccc(C(O)(C(F)(F)F)C(F)(F)F)cc1 [T0901317] (first compound 0.08 µM, partner dose 1.4 µM)
cell count [1]: 93.2%
cell count [2]: 112%
cell count [3]: 87.7%
cell count [4]: 64%
cell count [5]: 95.3%
cell count [6]: 93.4%

CCCS(=O)(=O)Nc1ccc(F)c(C(=O)c2c[nH]c3ncc(Cl)cc23)c1F + O=C1NC(=O)/C(=C/c2ccc(-c3ccc(F)cc3O)o2)S1 [AS252424] (first compound 0.08 µM, partner dose 1 µM)
cell count [1]: 102%
cell count [2]: 116%
cell count [3]: 82.7%
cell count [4]: 70.3%
cell count [5]: 74.4%
cell count [6]: 106%

CN(c1ncccc1CNc1nc(Nc2ccc3c(c2)CC(=O)N3)ncc1C(F)(F)F)S(C)(=O)=O + CN(C)S(=O)(=O)c1ccc2c(c1)/C(=C/c1cc3c([nH]1)CCCC3)C(=O)N2 [SU6656] (first compound 0.08 µM, partner dose 0.4 µM)
cell count [1]: 74.9%
cell count [2]: 97.8%
cell count [3]: 80.6%
cell count [4]: 118%
cell count [5]: 96.2%
cell count [6]: 91.7%

CS(=O)(=O)c1ccc(C(=O)Nc2ccc(Cl)c(-c3ccccn3)c2)c(Cl)c1 [vismodegib] + Cn1cncc1[C@@](N)(c1ccc(Cl)cc1)c1ccc2c(c1)c(-c1cccc(Cl)c1)cc(=O)n2C [tipifarnib] (first compound 1 µM, partner dose 0.01 µM)
cell count [1]: 96.6%
cell count [2]: 94.9%
cell count [3]: 91.5%
cell count [4]: 86.2%
cell count [5]: 87%
cell count [6]: 86.9%

C=C(c1ccc(C(=O)O)cc1)c1cc2c(cc1C)C(C)(C)CCC2(C)C [Bexarotene] + O=C(CCCCCCC(=O)Nc1ccccc1)NO [vorinostat] (first compound 2 µM, partner dose 0.08 µM)
cell count [1]: 88.7%
cell count [2]: 83.4%
cell count [3]: 104%
cell count [4]: 83.9%
cell count [5]: 90.7%
cell count [6]: 96.6%

CS(=O)(=O)c1ccc(C(=O)Nc2ccc(Cl)c(-c3ccccn3)c2)c(Cl)c1 [vismodegib] + O=C(Nc1ccccc1)c1cc([N+](=O)[O-])ccc1Cl [GW9662] (first compound 1 µM, partner dose 2 µM)
cell count [1]: 103%
cell count [2]: 102%
cell count [3]: 108%
cell count [4]: 112%
cell count [5]: 62%
cell count [6]: 94.7%

C=C(c1ccc(C(=O)O)cc1)c1cc2c(cc1C)C(C)(C)CCC2(C)C [Bexarotene] + COc1ccc2c(c1)CCC1C2CCC2(C)C(NCCCCCCN3C(=O)C=CC3=O)CCC12 [U73122] (first compound 2 µM, partner dose 0.4 µM)
cell count [1]: 92.5%
cell count [2]: 77.5%
cell count [3]: 104%
cell count [4]: 94.9%
cell count [5]: 102%
cell count [6]: 105%

CCCS(=O)(=O)Nc1ccc(F)c(C(=O)c2c[nH]c3ncc(Cl)cc23)c1F + CC(=O)c1c(C)c2cnc(Nc3ccc(N4CCNCC4)cn3)nc2n(C2CCCC2)c1=O [palbociclib] (first compound 0.08 µM, partner dose 0.04 µM)
cell count [1]: 78%
cell count [2]: 84.8%
cell count [3]: 91.5%
cell count [4]: 54.9%
cell count [5]: 57.7%
cell count [6]: 75%

CN(c1ncccc1CNc1nc(Nc2ccc3c(c2)CC(=O)N3)ncc1C(F)(F)F)S(C)(=O)=O + O=C(Nc1ccccc1)c1cc([N+](=O)[O-])ccc1Cl [GW9662] (first compound 0.08 µM, partner dose 2 µM)
cell count [1]: 79.7%
cell count [2]: 97.9%
cell count [3]: 92%
cell count [4]: 119%
cell count [5]: 119%
cell count [6]: 97.7%

CN(c1ncccc1CNc1nc(Nc2ccc3c(c2)CC(=O)N3)ncc1C(F)(F)F)S(C)(=O)=O + Cc1cc(Nc2cc(N3CCN(C)CC3)nc(/C=C/c3ccccc3)n2)n[nH]1 [ENMD2076] (first compound 0.08 µM, partner dose 0.04 µM)
cell count [1]: 84.4%
cell count [2]: 94.7%
cell count [3]: 82.3%
cell count [4]: 97.5%
cell count [5]: 108%
cell count [6]: 88.6%

C=C(c1ccc(C(=O)O)cc1)c1cc2c(cc1C)C(C)(C)CCC2(C)C [Bexarotene] + Cc1cc(N2CCOCC2)cc2[nH]c(-c3c(NC[C@@H](O)c4cccc(Cl)c4)cc[nH]c3=O)nc12 [BMS536924] (first compound 2 µM, partner dose 0.2 µM)
cell count [1]: 99.5%
cell count [2]: 90.7%
cell count [3]: 57%
cell count [4]: 84.3%
cell count [5]: 98.8%
cell count [6]: 116%

CS(=O)(=O)c1ccc(C(=O)Nc2ccc(Cl)c(-c3ccccn3)c2)c(Cl)c1 [vismodegib] + Cn1c(Nc2ccc(C(F)(F)F)cc2)nc2cc(Oc3ccnc(-c4ncc(C(F)(F)F)[nH]4)c3)ccc21 [CHIR265] (first compound 1 µM, partner dose 0.08 µM)
cell count [1]: 73.5%
cell count [2]: 105%
cell count [3]: 89.8%
cell count [4]: 78.6%
cell count [5]: 68.8%
cell count [6]: 150%

CS(=O)(=O)c1ccc(C(=O)Nc2ccc(Cl)c(-c3ccccn3)c2)c(Cl)c1 [vismodegib] + CO[C@@H]1[C@H](N(C)C(=O)c2ccccc2)C[C@H]2O[C@]1(C)n1c3ccccc3c3c4c(c5c6ccccc6n2c5c31)C(=O)NC4 [Midostaurin] (first compound 1 µM, partner dose 0.08 µM)
cell count [1]: 86.5%
cell count [2]: 114%
cell count [3]: 87.4%
cell count [4]: 109%
cell count [5]: 107%
cell count [6]: 83.3%

CS(=O)(=O)c1ccc(C(=O)Nc2ccc(Cl)c(-c3ccccn3)c2)c(Cl)c1 [vismodegib] + Cc1cc(Nc2cc(N3CCN(C)CC3)nc(/C=C/c3ccccc3)n2)n[nH]1 [ENMD2076] (first compound 1 µM, partner dose 0.04 µM)
cell count [1]: 102%
cell count [2]: 87.9%
cell count [3]: 85.6%
cell count [4]: 79.6%
cell count [5]: 87.9%
cell count [6]: 91.1%

NC1(c2ccc(-c3nc4ccn5c(=O)[nH]nc5c4cc3-c3ccccc3)cc2)CCC1 + Oc1nc(-c2ccc(C(F)(F)F)cc2)nc2c1CSCC2 [XAV939] (first compound 0.4 µM, partner dose 2 µM)
cell count [1]: 73.9%
cell count [2]: 93.4%
cell count [3]: 85.2%
cell count [4]: 102%
cell count [5]: 83.4%
cell count [6]: 97.6%

NC1(c2ccc(-c3nc4ccn5c(=O)[nH]nc5c4cc3-c3ccccc3)cc2)CCC1 + Cn1cncc1[C@@](N)(c1ccc(Cl)cc1)c1ccc2c(c1)c(-c1cccc(Cl)c1)cc(=O)n2C [tipifarnib] (first compound 0.4 µM, partner dose 0.01 µM)
cell count [1]: 63.9%
cell count [2]: 69.6%
cell count [3]: 82.5%
cell count [4]: 65.7%
cell count [5]: 79%
cell count [6]: 79.4%

CN(c1ncccc1CNc1nc(Nc2ccc3c(c2)CC(=O)N3)ncc1C(F)(F)F)S(C)(=O)=O + O=C(O)c1ccc(-c2c[nH]c3ncc(-c4ccccc4)cc23)cc1C1CCCC1 [GSK650394] (first compound 0.08 µM, partner dose 0.16 µM)
cell count [1]: 88%
cell count [2]: 94.1%
cell count [3]: 82.5%
cell count [4]: 102%
cell count [5]: 106%
cell count [6]: 114%
